This passage reports Potency results from PubChem BioAssay AID360 (National Center for Advancing Translational Sciences (NCATS), 2006).

The whole screen tested about 48,000 compounds, of which about 550 (1.1%) were called active. Roughly 4% stayed inconclusive and do not appear here. Cut-off read from the data, not from the text of the source: active = potency below about 15 µM; inconclusive = mostly about 16 µM to 33 µM; inactive = weaker than that. The list shows a part of the results.
Potency is the fitted concentration of half-maximal effect.

Chain of UniProt P04062 (P04062 whole entry, looked up): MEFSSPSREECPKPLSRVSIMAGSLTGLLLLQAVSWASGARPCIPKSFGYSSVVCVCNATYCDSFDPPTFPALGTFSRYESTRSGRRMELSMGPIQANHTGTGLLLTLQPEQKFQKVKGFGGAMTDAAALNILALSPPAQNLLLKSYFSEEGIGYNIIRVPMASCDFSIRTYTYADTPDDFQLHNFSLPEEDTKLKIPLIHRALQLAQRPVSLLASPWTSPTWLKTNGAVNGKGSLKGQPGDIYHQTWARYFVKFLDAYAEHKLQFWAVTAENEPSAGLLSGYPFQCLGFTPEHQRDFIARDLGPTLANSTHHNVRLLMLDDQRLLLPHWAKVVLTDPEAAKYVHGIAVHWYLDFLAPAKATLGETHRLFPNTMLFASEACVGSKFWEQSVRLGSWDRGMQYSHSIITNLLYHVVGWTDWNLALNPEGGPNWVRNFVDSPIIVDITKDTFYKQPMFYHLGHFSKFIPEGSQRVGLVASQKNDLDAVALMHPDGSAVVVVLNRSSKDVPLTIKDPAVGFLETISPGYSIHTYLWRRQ

The assay concerns the target Lysosomal acid glucosylceramidase (Homo sapiens) (UniProt P04062). The assay can be described thus: Glucocerebrosidase.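 Note: the screen sought inhibitors.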 The note with it: purified enzyme, resorufin glucoside fluorescence (screen aimed at inhibitors), 20 min. In short, it runs like this:
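Compounds titrated against 0.2 nM normal enzyme, 30 uM resorufin beta-D-glucopyranoside substrate, citrate/phosphate buffer with taurocholate and tween-20, pH 5.9. Reaction ran 20 min at room temperature; fluorescence (Ex 548/Em 600) gave AC50.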
In the case of `CCC(C)(C(=O)NC1CCCC1)N(C(=O)c1ccccn1)c1ccccc1` (stereo not drawn), the Potency is inactive: > 76.9 µM.

`Cc1ccccc1NC(=O)Cn1c(=O)n(C)c2ccccc21`: the Potency was inactive: > 76.9 µM. For `CC1Oc2ccccc2N(CC(=O)Nc2ccc3c(c2)OCCO3)C1=O` (stereo not drawn) the value was inactive: > 76.9 µM.

Consider `O=C(CSc1nnc(-c2cccnc2)n1C1CCCCC1)NC1CCCC1`, for which the Potency is inactive: > 76.9 µM. Take `COc1cccc(C(=O)Cn2c(=O)n(CC3CCCO3)c(=O)c3ccccc32)c1` (stereo not drawn): the Potency is inactive: > 76.9 µM. With `CCCN(CCC)c1nc(C)cc(C(C#N)c2nc3ccccc3o2)n1` (stereo not drawn), the Potency is inactive: > 76.9 µM. For `CC(C)(Oc1ccc(Cl)cc1)C(=O)NCc1ccncc1` the value was inactive: > 76.9 µM; for `Cc1c(C(=O)N(C)Cc2ccccc2)oc2ccc(S(=O)(=O)N3CCCC3)cc12`, inactive: > 76.9 µM; for `Cc1nc2nc(COc3ccccc3)[nH]n2c(=O)c1Cc1ccccc1`, inactive: > 76.9 µM.

`CC(C)CC(OC(=O)c1cccs1)C(=O)NCC1CCCO1` (stereo not drawn): the Potency is inactive: > 76.9 µM.

Consider `COc1ccccc1-n1cnc2cc(C(=O)NCc3ccco3)ccc21`, for which the Potency entry was “inactive”. For `O=C(CCS(=O)(=O)Cc1ccccc1F)NCCCN1CCCCC1` the value was inactive: > 76.9 µM; for `COc1cc2c(C(=O)N3CCN(C)CC3)c(C)oc2cc1Br`, “inactive”. The figure for `N#CC1=C(N)OC2=C(C(=O)CCC2)C1Cc1ccccc1` (stereo not drawn) is inactive: > 76.9 µM. The figure for `CC1CCCCN1S(=O)(=O)c1ccc(S(=O)(=O)N2CCN(c3ccc(F)cc3)CC2)cc1` (stereo not drawn) is inactive: > 76.9 µM; for `CC(=O)c1cccc(OCCN2C(=O)NC(C)(C)C2=O)c1` it is inactive: > 76.9 µM. Consider `Cc1ccc2c(c1)c1c(n2C)C(C(N)=O)CCC1` (stereo not drawn), for which the Potency was inactive: > 76.9 µM. For the compound `CCOC(=O)C1CCN(S(=O)(=O)c2cccc(-c3cn4cccnc4n3)c2)CC1`, the Potency is inactive: > 76.9 µM.

In the case of `Cc1ccc(C)c(S(=O)(=O)NCc2ccc(C(=O)N3CCN(C)CC3)cc2)c1`, the Potency is inactive: > 76.9 µM.

As for `O=C(Cc1ccsc1)NCC(c1ccco1)N1CCCCC1` (stereo not drawn), the Potency was inactive: > 76.9 µM. In the case of `COC(=O)c1ccccc1NC(=O)c1ccc(-c2ccccc2F)o1`, the Potency is inactive: > 76.9 µM.

Consider `O=C(c1csc2c1CCCC2)N1CCN(c2ncccn2)CC1`, for which the Potency is inactive: > 76.9 µM. Consider `Nc1cnn(C2CCCO2)c(=O)n1` (stereo not drawn), for which the Potency was inactive: > 76.9 µM. For `Cc1ccc(-c2cccc(NC(=O)C3C(C(=O)O)[C@@H]4C=C[C@H]3C4)c2)o1` (stereo partly drawn), the Potency was inactive: > 76.9 µM. The figure for `COc1ccc(/C(CC2(O)C(=O)Nc3ccccc32)=N\O)cc1` (stereo not drawn) is inactive: > 76.9 µM; for `CCc1ccc2[nH]c(=O)c(CN(CCN(CC)CC)C(=O)Nc3ccccc3OC)cc2c1` it is inactive: > 76.9 µM. The figure for `COc1ccc(CN(C(=O)c2cccs2)c2nccs2)cc1OC` is inactive: > 76.9 µM; for `COc1ccccc1NC(=O)CCC(=O)Nc1nnc(C(F)(F)F)s1` it is inactive: > 76.9 µM; for `O=C(c1ccc(F)cc1)C(CN1CCOCC1)c1ccccc1` (stereo not drawn) it is inactive: > 76.9 µM. For `COc1cc(NC(=O)CSc2nccc(C)n2)c(C(=O)O)cc1OC` the value was inactive: > 76.9 µM. Take `CCOC(=O)c1c(-c2ccsc2)csc1N`: the Potency was inactive: > 76.9 µM. The figure for `Cc1ccc(-c2nc(C3CCCN(S(=O)(=O)c4ccc(C(F)(F)F)cc4)C3)no2)cc1` (stereo not drawn) is inactive: > 76.9 µM; for `Cn1cccc1C(=O)NC(=O)COC(=O)c1ccccc1O` it is inactive: > 76.9 µM; for `COc1ccc(CN(Cc2nc3ccccc3c(=O)[nH]2)C(=O)NC2CCCCC2)cc1` it is inactive: > 76.9 µM.

`CC(NC(=O)c1ccco1)c1ccc2c(c1)OCCO2` (stereo not drawn): the Potency is inactive: > 76.9 µM. For `O=C(CN1C(=O)CSc2ccccc21)Nc1ccc2c(c1)OCCO2` the value was inactive: > 76.9 µM; for `O=C(CCc1ccccc1)NCCCN1CCOCC1`, inactive: > 76.9 µM; for `Cc1cc(C)c2c(=O)n(-c3ccccc3)[nH]c2n1`, inactive: > 76.9 µM. As to `Cc1c(C(=O)NC2CCCCC2)oc2c1C(=O)CC(C)(C)C2`, the Potency is inactive: > 76.9 µM.

With `CC(C)C(=O)Nc1nnc(CCc2nnc(NC(=O)C(C)C)s2)s1`, the Potency is inactive: > 76.9 µM. Consider `CC(=O)c1cc(CN2C(=O)c3ccccc3C2=O)cs1`, for which the Potency is inactive: > 76.9 µM.

Consider `Cn1c(SCc2ccccc2F)nnc1-c1cnccn1`, for which the Potency was inactive: > 76.9 µM. For `Cc1ccc(C(C)NC(=O)c2c(C)noc2C)cc1C` (stereo not drawn) the value was inactive: > 76.9 µM; for `CC(C)OC(=O)Cn1c(=O)sc2ccccc21`, inactive: > 76.9 µM; for `CCn1c(=O)n(CC)c2cc(S(N)(=O)=O)c(C)cc21`, inactive: > 76.9 µM. For `Cc1noc(C)c1COC(=O)c1cc(C)n(-c2ccccc2)c1C`, the Potency is inactive: > 76.9 µM. For `CC1Cc2ccccc2N1C(=O)CN1C(=O)CN(C)C(=O)c2ccccc21` (stereo not drawn) the value was inactive: > 76.9 µM; for `O=C(CN1C(=O)c2ccccc2S1(=O)=O)N1CCN(c2ccc(F)cc2)CC1`, inactive: > 76.9 µM; for `CC1(C)CC(=O)C2=C(C1)NC(=O)CC2C(=O)NCc1ccc(F)cc1` (stereo not drawn), inactive: > 76.9 µM. As for `O=C(NCc1ccccc1)N1CCn2c(nc3ccccc32)C1`, the Potency was inactive: > 76.9 µM. For `Cc1ccc(C)c(CSc2nnc(-c3ccccn3)n2N)c1`, the Potency was inactive: > 76.9 µM. For `NC(=O)CNC(=O)C1CCCc2c1[nH]c1ccc(Cl)cc21` (stereo not drawn) the value was inactive: > 76.9 µM; for `CCSc1nnc(NC(=O)CSc2nnc(Cc3cccn3C)n2CCc2ccccc2)s1`, inactive: > 76.9 µM; for `CCCCSc1nc(C)c(CC(=O)O)c(=O)[nH]1`, inactive: > 76.9 µM.

For the compound `CCOc1ccc(-c2nnc(-c3cccnc3)o2)cc1OCC`, the Potency is inactive: > 76.9 µM.

For the compound `Cn1cnc2c1c(=O)n(Cc1c(Cl)cccc1Cl)c(=O)n2C`, the Potency is inactive: > 76.9 µM. The figure for `COC(=O)n1c(=O)oc2cc(S(=O)(=O)N3CCOCC3)ccc21` is inactive: > 76.9 µM.

For `O=C(CSc1nnc(-c2cccs2)n1-c1ccccc1)NCC1CCCO1` (stereo not drawn), the Potency was inactive: > 76.9 µM.

`O=C(c1ccccc1-c1nc2ccccc2[nH]1)N1CCCCC1`: the Potency is inactive: > 76.9 µM.

Take `CS(=O)(=O)N1CCc2cc(S(=O)(=O)Nc3ccc4c(c3)OCCO4)ccc21`: the Potency was inactive: > 76.9 µM. For `CC(SCc1ccccc1)C(=O)NC1CCCC1` (stereo not drawn) the value was inactive: > 76.9 µM; for `Fc1ccc(Br)cc1C1C=C(c2ccc(Br)s2)Nc2ncnn21` (stereo not drawn), inactive: > 76.9 µM. For `COc1ccc(C)cc1-n1nnnc1SCc1nc2ccccc2s1` the value was inactive: > 76.9 µM. For `c1ccc(-c2nc[nH]c2-c2ccccc2)cc1` the value was inactive: > 76.9 µM; for `O=C(NCCc1c[nH]c2ccccc12)c1ccc(S(=O)(=O)NCc2ccco2)cc1`, “inactive”. For `COc1ccc(OC)c(C(=O)CC2OC(=O)c3ccccc32)c1` (stereo not drawn), the Potency was inactive: > 76.9 µM. For `CC1(C)CC2(CC(C)(C)NC(=O)N2)NC(=O)N1`, the Potency was inactive: > 76.9 µM. With `N#Cc1nc(COc2ccc(Cl)cc2Cl)oc1N1CCN(c2ccccc2)CC1`, the Potency was inactive: > 76.9 µM.

For the compound `CCC(=O)N1c2ccc(S(=O)(=O)CCC(=O)NC3CCCC3)cc2CC1C` (stereo not drawn), the Potency is inactive: > 76.9 µM. `O=c1c2cc3c(cc2[nH]c(=S)n1Cc1ccco1)OCO3`: the Potency was inactive: > 76.9 µM. For `CC(=O)c1ccc(NC(=O)c2ccc(S(=O)(=O)N3CCCC3)cc2)cc1` the value was “inactive”.

Take `COc1cc(OC)c(NC(=O)c2ccoc2C)cc1Cl`: the Potency was inactive: > 76.9 µM. For `Cc1cccc(N2CCN(C(=O)COc3cc(=O)n(C)c4ccccc34)CC2C)c1` (stereo not drawn) the value was inactive: > 76.9 µM; for `Fc1ccc(-c2nnc(CN3CCN(c4ncc(C(F)(F)F)cc4Cl)CC3)o2)cc1`, inactive: > 76.9 µM. For the compound `O=C(NC1CCCC1)C1CC1c1ccccc1` (stereo not drawn), the Potency was inactive: > 76.9 µM. As for `CCCOc1ccc(C(C)(O)CN2CCOCC2)cc1` (stereo not drawn), the Potency is inactive: > 76.9 µM. The figure for `O/N=C1/CCSc2ccccc21` is inactive: > 76.9 µM. For the compound `O=C(O)C1CC(=O)N(CCc2c[nH]c3ccccc23)C1` (stereo not drawn), the Potency was inactive: > 76.9 µM. For `CCOC(=O)N1CCC(NC(=O)Cn2cccc2C(=O)c2ccccc2C)CC1` the value was inactive: > 76.9 µM. The figure for `COc1ccc(Cl)cc1NC(=O)c1oc(C)nc1C` is inactive: > 76.9 µM; for `COc1ccccc1-n1c(CNC(=O)c2ccco2)nnc1SCC(=O)Nc1cc(C)ccc1C` it is inactive: > 76.9 µM. For `Cc1ccc(N(CC(=O)O)S(=O)(=O)c2cccc3nonc23)cc1` the value was inactive: > 76.9 µM.

With `Cc1ccc(C(C(=O)NC2CCCCC2)N2CCOCC2)cc1` (stereo not drawn), the Potency was inactive: > 76.9 µM. The figure for `COc1ccc(N2C3=[N+](CC2(C)O)c2ccccc2CC3)cc1` (stereo not drawn) is inactive: > 76.9 µM.

For the compound `Cc1cccc(-n2cnc3cc(C(=O)N4CCCCC4)ccc32)c1`, the Potency is inactive: > 76.9 µM. With `Cc1cc(CN2C(=O)c3ccccc3C2=O)on1`, the Potency is inactive: > 76.9 µM. With `CC1(Cc2cn(CCC#N)c3ccccc23)OCCO1`, the Potency is active: 14.4 µM. For `COc1ccc(-c2cc3ccccc3n2CC(O)Cn2nc(C)cc2C)cc1` (stereo not drawn) the value was inactive: > 76.9 µM.

Take `O=C(CN1C(=O)COc2ccccc21)N(Cc1ccc2c(c1)OCO2)CC1CCCO1` (stereo not drawn): the Potency was inactive: > 76.9 µM. Consider `CN(Cc1ccccc1)c1nc2c(c(=O)[nH]c(=O)n2C)n1CCOc1ccccc1`, for which the Potency is inactive: > 76.9 µM.

Turning to `COC(=O)c1cc(Br)c(=O)n(-c2ccccc2OC)c1`, the Potency was inactive: > 76.9 µM. For `COC(=O)[C@@H](NC(=O)Nc1ccc(C(C)=O)cc1)C(C)C` the value was inactive: > 76.9 µM. The figure for `COc1ccccc1NC(=O)C1CCCCC1` is inactive: > 76.9 µM.
